Laboratory results reported in publication PMC12136788.
The other results are listed elsewhere or left out.

T1: UNK ZnF1-6 (called full-length) (human, UniProt Q9C0B0 30-357)
T1 sequence: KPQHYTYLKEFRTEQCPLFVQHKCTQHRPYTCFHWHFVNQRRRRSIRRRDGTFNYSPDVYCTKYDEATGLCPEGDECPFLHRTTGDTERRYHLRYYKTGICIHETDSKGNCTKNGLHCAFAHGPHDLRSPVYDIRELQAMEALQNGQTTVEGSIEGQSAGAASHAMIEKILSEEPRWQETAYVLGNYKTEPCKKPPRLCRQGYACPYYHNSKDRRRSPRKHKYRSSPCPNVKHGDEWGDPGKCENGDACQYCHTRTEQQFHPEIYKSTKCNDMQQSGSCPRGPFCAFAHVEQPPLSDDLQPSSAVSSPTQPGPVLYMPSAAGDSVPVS

B1: chr11:73401874:73401975:-|3pUTR|ENSG00000054965|unk|FALSE|unique (ssRNA)
RNA: GGGAGUUCUACAGUCCGACGAUCUGCAGGGUUUGUCCUUUACUUAUCUGCCCCUUUCCUAGAAAACUCCUCGUUUCUGAAAUUAGGCAUUAUAUGGUUCCAGGACCCAGCCUUCAAAAUUCCUGGCAGGCCAGCUUCAACAUUCAACAGAGGAUUGAGCAUCA
B2: chr15:74955373:74955475:-|3pUTR|ENSG00000178718|unk|total|mutant (ssRNA)
RNA: GGGAGUUCUACAGUCCGACGAUCGGACAGUUUUCCUUUCCCGUUUUCUUUCCCCUGCUUCAGAGGAGCAUCUCUGAGGGUUCCCGCUCUUUUAACACCCCUUUUCCCCCUGCUGGCCCAGAGGGAGACCCAGGACUGAACUCUCAACAGAGGAUUGAGCAUCA
B3: chr2:224470697:224470798:-|3pUTR|ENSG00000036257|msi1|FALSE|bound_elsewhere (ssRNA)
RNA: GGGAGUUCUACAGUCCGACGAUCUGUGACAAACUAAAGUUAAUACAUGAAGCAUUGCAAUAUGGAAUUUUGCACAUUUUUGUUAGCUUUACAUUAUUUGCUGAUACCAACUUUUGGUAGGAAGGAAAACAGGGAAGGUGAUUGCAACAGAGGAUUGAGCAUCA
B4: ENSG00000155189:stop:overlap|stop_codon|ENSG00000155189|stop_codon|NA|stop_codon (ssRNA)
RNA: GGGAGUUCUACAGUCCGACGAUCAUGUGAACACCUGGAUAUAUGGAACCCUACUUGGCUGCCUGUGGGUUACUAUUAAAGCAUAGACAAGUAGCUGUCUCCAGACAGUGGGAUGUGCUACAUUGUCUAUUUUUGGCGGCUGCACAACAGAGGAUUGAGCAUCA
B5: ENSG00000143373:stop:overlap|stop_codon|ENSG00000143373|stop_codon|NA|stop_codon (ssRNA)
RNA: GGGAGUUCUACAGUCCGACGAUCACUUCCGCACGCAUGGCAUGGCGUUCAUCAGGGCUCGGCAGGGGGCUGUUGGGGACAACUAGUCUCCAAGGCCUGGGACUGACCAGCCCCUUCCUCUUGGAGCCUGGUUUUCCCUACUGCCAACAGAGGAUUGAGCAUCA
B6: ENSG00000164054:stop:overlap|stop_codon|ENSG00000164054|stop_codon|NA|stop_codon (ssRNA)
RNA: GGGAGUUCUACAGUCCGACGAUCCAGGAUUUGAGCUGGGACAACAAGGAGGAGACAGUGCGGAACAAGCUCCCAGAGGGGCAUAGGAGGAGGAGUGGCUUCCUGGGGUUGUGGCAGCAGGGAGGUGACUGGGGCCAGCUCAGACAACAGAGGAUUGAGCAUCA
B7: chr2:205796522:205796663:+|3pUTR|ENSG00000118257|msi1|total|mutant (ssRNA)
RNA: GGGAGUUCUACAGUCCGACGAUCGUUUUUAUUAAGUGCCUUGAAAAAAUGAAGAAAAAUGUAUUUUCCCUUUAUGUAAAAAUCCGUGAAUAUCUUAUGAAUUAAGGCAUUCCUCUUUCCCUAACCCCGAUGGCUCCAUUCCCACAACAGAGGAUUGAGCAUCA
B8: chr6:73594753:73594854:-|3pUTR|ENSG00000119899|unk|total|mutant (ssRNA)
RNA: GGGAGUUCUACAGUCCGACGAUCGGUUCACAUACCUGCCUGCCCGUCGGGCAACAUGAAGCCGGACAGUUCUGUUGAUUUUUCCGGGCCAUACUAAAGGGAAUGAGCUGAAACAGACCUCCUGAUACCUUUGCUUAAUUAAACCAACAGAGGAUUGAGCAUCA
B9: chr17:63832812:63832858:-|3pUTR|ENSG00000108604|msi1_unk|FALSE|overlapping (ssRNA)
RNA: GGGAGUUCUACAGUCCGACGAUCCCAGCCCUGGAGCCUGGAGGGAGACCACCCUCUGGGUCCUUGCUGGGGCCGCAGACACGUAGGCUGGGGUGAGGAGUGUCUGCUGUCACCCUCUACUCUCCAGCUUUAGUCUUAUAAAUGCAACAGAGGAUUGAGCAUCA
B10: ENSG00000107863:be:win_3601|CDS|ENSG00000107863|bound_else_gene|NA|bound_elsewhere_windowed (ssRNA)
RNA: GGGAGUUCUACAGUCCGACGAUCAAGGGAAUGGCUGAUAUUGAUAUACAAGAUGAUAAAUGGCGAGAUUUGAAUGUGAUAAGCAGUUUACUAAAAUCCUUCUUCAGAAAACUCCCUGAGCCUCUCUUCACAAAUGAUAAAUAUCAACAGAGGAUUGAGCAUCA
B11: chr3:160434497:160434598:+|3pUTR|ENSG00000113810|msi1|total|mutant (ssRNA)
RNA: GGGAGUUCUACAGUCCGACGAUCUUUAUGACCGGUUUAUCCGGGUACUAAAUGCAUUUCAACUUGACCGUUUCAACUUAUGACCGGUUUACCAGGAUGCCGUCCCACUGUUGAGGAGCAUCUAUUCCGGGGUUAAUUACUUUACAACAGAGGAUUGAGCAUCA
B12: chr16:20924479:20924582:+|3pUTR|ENSG00000102897|unk|total|mutant (ssRNA)
RNA: GGGAGUUCUACAGUCCGACGAUCCUACUAUAAAACUAUGUACCACUCUCAGAAUAUUCUCCGGCUUUUUUUUUUUCAAGUUACCGAUUUGCUUAAAGUGAGGUUUUUUGGUGUGUGCUUUUUUGUUGUCUUUUGACCCUUCCACAACAGAGGAUUGAGCAUCA
B13: chr11:62841694:62841860:-|5pUTR|ENSG00000133316|unk|total|mutant (ssRNA)
RNA: GGGAGUUCUACAGUCCGACGAUCGCCGCCGAGGCGACCGAAGUAAAGGUAUCGCUUCUCGGCCUUUUGGCUAAGAUCAAGUGCCGUAUCUGUUCUUAUCAGUUUAAUAUCUGAUACGUCCUCUAUCCGAGGACAAUAUAUUAACAACAGAGGAUUGAGCAUCA
B14: chr19:48382969:48383148:-|3pUTR|ENSG00000105438|msi1_unk|total|mutant (ssRNA)
RNA: GGGAGUUCUACAGUCCGACGAUCACUUGGGCUGUUUGCCGUUUUUUGCCUUUCCGACAAGAAAAAAAAAUCUUUCCACUCUUCCGUUUUUGAUUCUGAUGACUCGUUUUUCUUCUACUCUGUGGCCCCAAUUUUUAUAAAGUGCAACAGAGGAUUGAGCAUCA
B15: chr1:94529602:94529703:-|3pUTR|ENSG00000117525|msi1|total|mutant (ssRNA)
RNA: GGGAGUUCUACAGUCCGACGAUCUGGAAGGAAAUUGGGUGCAUUUCCCGGACUUUUCUAACAUAUGUCUAUAAUACCGUGUUCCGGUUCUUUUUUUUUUCAGGAAUACAUUUGGAAAUUCAAAACAAUUGGCAAACUUUGUAUCAACAGAGGAUUGAGCAUCA
B16: chr6:122456482:122456612:-|CDS|ENSG00000111897|unk|total|mutant (ssRNA)
RNA: GGGAGUUCUACAGUCCGACGAUCUGCUUUGGUUUGGCUAUGUUCUAUCUUCUUCUCUCUUUACUAAUGAUCAAAGUGAAGAGCCGCAGUGAUCCCCGAGCUGCAGUGCACAAUGGGUAAGUUUUUAAAUAAGCUUCAAUAUAACAACAGAGGAUUGAGCAUCA
B17: ENSG00000136451:be:win_51|CDS|ENSG00000136451|bound_else_gene|NA|bound_elsewhere_windowed (ssRNA)
RNA: GGGAGUUCUACAGUCCGACGAUCUCACCAACAGCAGGCAGCACAGAACAGCUUGCUGCCCCUCCUGAGCUCUGCCGUGGAGCCCCCUGAUCAGAAACCAUUGCUUCCAAUACCAAUAACUCAGAAACCUCAGGGUGCACCAGACAACAGAGGAUUGAGCAUCA
B18: ENSG00000198589:be:win_751|CDS|ENSG00000198589|bound_else_gene|NA|bound_elsewhere_windowed (ssRNA)
RNA: GGGAGUUCUACAGUCCGACGAUCAAACCAUAUUUGUAUUGUUUCAGAACCAGCAAAGGUCUUGGCUAUUCUGCUCAUUUUGUUGGAGGCUGUUUGAUUGUAACAUCAAUAAAGUCAAAAGGAAAAGGCUUUCAACACUGUGUGCAACAGAGGAUUGAGCAUCA
B19: chr3:9757346:9757621:-|three_prime_utr|ENSG00000134072|control|control|control (ssRNA)
RNA: GGGAGUUCUACAGUCCGACGAUCGUCGAGACUGCUGCGUGGAGCCGGGCACAGAACUGUCCCCCACACUGCCCCACCAGCUCUAGGGCCCUGGACCUCGGGUCAUGAUCCUCUGCGUGGGAGGGCUUGGGGGCAGCCUGCUCCCAACAGAGGAUUGAGCAUCA
B20: chr4:186618492:186618593:-|CDS|ENSG00000083857|msi1|FALSE|unique (ssRNA)
RNA: GGGAGUUCUACAGUCCGACGAUCGUAAUCACUACAAAGGAGAGCCUCAUUGGCUUGGAAAAUGAAUUCUUCACUUUCUUUGUUAGAGCUGUGGAUAAUGGGUCUCCAUCAAAAGAAUCUGUUGUUCUUGUCUAUGUUAAAAUCCAACAGAGGAUUGAGCAUCA
B21: chr1:113590523:113590624:+|CDS|ENSG00000081026|unk|total|mutant (ssRNA)
RNA: GGGAGUUCUACAGUCCGACGAUCUCAUCUGACUGGAUGAAGACUGUUCCAAGUUACAACCAAACAAACCGCUCCAUGGACUUCCGAAAUUAUAUGAUGAGAGAUGAGACUCUGGAACCACUGCCCAAAAACUGGGAAAUGGCCCAACAGAGGAUUGAGCAUCA
B22: chr12:48147896:48148005:-|3pUTR|ENSG00000177981|unk|total|mutant (ssRNA)
RNA: GGGAGUUCUACAGUCCGACGAUCCUGCUUCCGUGAACGAUACUCUUUCAUUUUUCUAAAUCCGAUCAAGUUGUUAUUGAUUUCCGAUGACUUGUAUGCAAAUUUGAAAAACUUUUUUUUUUAAAGCUGAUUGGGAACUACAAACAACAGAGGAUUGAGCAUCA

Each binder was assayed against T1, UNK ZnF1-6 (called full-length) (assay: nsRBNS (natural sequence RNA bind-n-seq); RBNS binding buffer (assumed for nsRBNS): 25 mM Tris pH 7.5, 150 mM KCl, 3 mM MgCl2, 0.01% Triton X-100, 500 ug/ml BSA, 20 U/ml SUPERase-In, 4 C; UNK is unkempt and MSI1 is Musashi-1; names of the RNAs are library labels; protein concentration not given here; high values mean tight binding).

| Binder | binding signal [enrichment R] |
| --- | --- |
| B1 | 0.79 |
| B2 | 0.865 |
| B3 | 0.481 |
| B4 | 0.408 |
| B5 | 0.569 |
| B6 | 0.709 |
| B7 | 0.382 |
| B8 | 0.619 |
| B9 | 1 |
| B10 | 0.528 |
| B11 | 0.363 |
| B12 | 0.953 |
| B13 | 0.28 |
| B14 | 0.646 |
| B15 | 0.606 |
| B16 | 0.461 |
| B17 | 0.676 |
| B18 | 0.358 |
| B19 | 1.07 |
| B20 | 0.487 |
| B21 | 0.474 |
| B22 | 0.502 |
